# Data from PubChem BioAssay AID1159614 (National Center for Advancing Translational Sciences (NCATS), 2016).
# Out of some 45,000 compounds screened, about 65 (0.1%) were called active. Calls follow the shape of the dose curve; as a rule, active = well fitted activation curve with a large enough effect; inconclusive = small, poorly fitted or top-dose-only effect; inactive = no such curve, though single readings can be large or run the other way. Some of the results follow.
# Molecular target: Galactocerebrosidase (Homo sapiens) (UniProt P54803)
# Assay: A Novel Cell-Based Assay to Identify Small Molecules for B -Galactocerebrosidase; also: nearly all actives have a fitted effect of over 65% in size; as to activation: 0% is about no effect
# Settings: 145M-Twi-hGALC-G270D cells (Twitcher mouse brain line with human GALC G270D), HMU-beta-Gal fluorescence, 48 h; series mostly up to 57.5 µM; activation: at the top concentration
# In short: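 Mutant human GALC (G270D), stably expressed in a Twitcher mouse brain cell line lacking endogenous GALC, is measured in live-treated cells via 6-hexadecanoylamino-4-methylumbelliferyl-β-galactoside hydrolysis (0.1 mM final, pH 5.2) with fluorescent detection.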
# Potency is read from the fitted curve at half-maximal effect.
# Sequence of UniProt P54803 (P54803 whole entry, looked up): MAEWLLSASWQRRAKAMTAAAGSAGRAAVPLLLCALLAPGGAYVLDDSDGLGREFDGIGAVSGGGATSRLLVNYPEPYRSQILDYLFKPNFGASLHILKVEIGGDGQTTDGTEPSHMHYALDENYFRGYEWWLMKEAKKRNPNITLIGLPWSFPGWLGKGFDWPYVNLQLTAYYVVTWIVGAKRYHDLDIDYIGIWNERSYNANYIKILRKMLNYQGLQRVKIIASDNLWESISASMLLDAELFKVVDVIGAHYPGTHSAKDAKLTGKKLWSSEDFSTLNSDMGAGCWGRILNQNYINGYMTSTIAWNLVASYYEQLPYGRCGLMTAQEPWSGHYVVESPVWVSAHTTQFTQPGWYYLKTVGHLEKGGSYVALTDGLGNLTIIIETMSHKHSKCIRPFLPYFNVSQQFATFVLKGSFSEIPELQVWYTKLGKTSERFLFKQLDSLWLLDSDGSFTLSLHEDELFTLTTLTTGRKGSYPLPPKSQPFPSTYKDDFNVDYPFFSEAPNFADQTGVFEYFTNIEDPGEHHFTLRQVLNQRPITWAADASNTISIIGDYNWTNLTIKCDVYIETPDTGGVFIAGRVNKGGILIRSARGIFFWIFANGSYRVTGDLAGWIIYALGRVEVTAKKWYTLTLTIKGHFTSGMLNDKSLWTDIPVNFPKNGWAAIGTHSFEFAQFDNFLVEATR
SMILES,activation,Potency
COc1ccccc1NC(=O)CSc1nnc(-c2nonc2NC(C)=O)n1-c1ccccc1,inactive: -8.23%,
Cc1ccc(S(=O)(=O)N(CC(=O)N2CCc3ccccc3C2)c2ccc(C)c(C)c2)cc1,inactive: -21%,
Cc1ccc(CNC(=O)Cn2c(=O)n(-c3ccc(C)c(F)c3)c(=O)c3sc4ccccc4c32)cc1,inactive: 6.68%,
O=C(Nc1noc2ccccc12)c1c(F)cccc1F,inactive: -15%,
CCOC(=O)c1c(C)c(-c2ccccc2)n(CC(=O)Nc2cccc(F)c2)c1C,inactive: -10.6%,
COc1ccc(NC(=O)CSc2nnc3scc(-c4ccc(Cl)cc4)n23)cc1,inactive: -14.8%,
Cn1nnnc1SCCNCc1ccc(OCc2ccccc2)cc1,inactive: -15.4%,
COC(=O)c1sccc1S(=O)(=O)N(CC(=O)NCc1ccccc1)c1ccc(C)c(C)c1,inactive: -5.59%,
CCN(CC)CCCNC(=O)c1nn(-c2ccc(OC)c(Cl)c2)c(=O)c2c1c1ccccc1n2C,inactive: 0.894%,
Cc1cccc(NC(=O)CN2C(=O)COc3ccc(S(=O)(=O)N4CCC(C)CC4)cc32)c1C,inactive: -6.36%,
CCOc1ccc(NC(=O)CCS(=O)(=O)c2ccc(Br)s2)cc1,inactive: -3.83%,
CCOC(=O)C1CCN(C(=O)C2CCN(c3nnc(C)c4c(C)n(-c5ccccc5)nc34)CC2)CC1,inactive: 6.74%,
CC1(C)CO[C@@H](CC(=O)O)CN1,inactive: -13%,
Cc1nn(CC(=O)NCc2ccccc2Cl)c(=O)c2cccn12,inactive: -15.8%,
CCCC(=O)Nc1cc(C(=O)NCc2ccc(OC)cc2)ccc1S(=O)(=O)c1ccc(Cl)cc1,inactive: -7.96%,
Cc1cccc(-c2nc(CCNC(=O)c3ccccc3Br)cs2)c1,inactive: -12%,
CCOC(=O)c1ccccc1NC(=O)N1CCCN(S(=O)(=O)c2ccc3c(ccn3CC)c2)CC1,inactive: 1.94%,
CCc1ccc(CNC(=O)C2CCCN(c3nn4cc(-c5ccc(F)cc5)nc4s3)C2)cc1 (centres undefined),inactive: -6.21%,
CCOc1ccc(-c2nc3c(C#N)c[nH]n3c2NC2CCCCC2)cc1,inactive: -18.9%,
O=C(Nc1cc(F)ccc1F)c1ccc2c(c1)nnn2C1CCCC1,inactive: -13.4%,
COc1ccc(-c2noc(CSc3nnc(-c4ccccc4)n3-c3ccc(F)cc3)n2)c(OC)c1,inactive: -16.7%,
Cc1ccc(Cc2c(C)nn(-c3nc(C)c(C(=O)N4CCCCC4C)s3)c2C)cc1 (centres undefined),inactive: -15.8%,
COc1ccc(NC(=O)C2CCCN(S(=O)(=O)c3c(C)n[nH]c3C)C2)cc1OC (centres undefined),inactive: -24.9%,
CC(=O)Oc1ccc(C)cc1,inactive: -20.2%,
COc1ccc(-c2cc(OC(=O)c3ccc(F)cc3)c3c(C)oc(C)c3c(=O)c2)cc1OC,inactive: -15.1%,

SMILES,activation,Potency
CCC(=O)N1CCc2cc(S(=O)(=O)NC(C(=O)NCCc3ccc(Cl)cc3)C(C)C)ccc21 (centres undefined),inactive: -14%,
Cc1cccc(NC(=O)CN2c3ccccc3S(=O)(=O)c3ccccc32)c1C,inactive: -18.9%,
Cc1ccc(Cl)cc1NC(=O)C(NS(=O)(=O)c1cccc2nsnc12)c1ccccc1 (centres undefined),inactive: -30.1%,
Cc1ccc(C)c(N2CCN(c3nccn4nc(-c5ccc(Br)cc5)cc34)CC2)c1,inactive: -1.03%,
COc1ccc(NC(=O)C2CCCN(S(=O)(=O)c3ccc(Cl)cc3)C2)cc1 (centres undefined),inactive: 1.29%,
O=C(NCc1ccccc1F)C1CCN(Cc2cc3ccccc3n2Cc2cccc(Cl)c2)CC1,inactive: -7.14%,
Cc1c(C(=O)OC2CCCCC2)[nH]c2c1C(=O)CC(c1ccccc1Cl)C2 (centres undefined),inactive: -15.3%,
Cc1cccn2c(=O)c(/C=C(\C#N)c3nc4ccccc4s3)c(Oc3ccc(Br)cc3)nc12,inactive: -8.92%,
Cc1ccccc1NC(=O)Nc1ccc2nc(N3CCN(C)CC3)cc(C)c2c1,inactive: -8.07%,
CC(=O)c1cc(-c2ccc(F)cc2)n(CC(=O)NC(C)c2ccccc2)c1C (centres undefined),inactive: -9.64%,
Cn1c(=O)oc2cc(S(=O)(=O)CCC(=O)NCCc3ccccc3)ccc21,inactive: -21.1%,
O=C(COCc1cc(-c2cccs2)on1)NCc1ccccc1Cl,inactive: -44.4%,
Cc1nc2nc(NC(=O)c3ccc(F)cc3)[nH]n2c(=O)c1Cc1ccccc1,inactive: -10.8%,
COc1cc(C2c3c(oc4ccccc4c3=O)C(=O)N2c2nc(C)c(C)s2)ccc1O (centres undefined),inactive: -8.18%,
COc1cccc(C(=O)NC(=O)Nc2ccc(-n3nc(C(F)(F)F)cc3C(F)(F)F)cc2)c1,inactive: -0.807%,
COc1ccc(CNCc2ccc3c(c2)n(C)c(=O)n3C)cc1,inactive: -17.8%,
CC(=O)c1ccc(NC(=O)C2=CC(c3cccs3)=NS(=O)(=O)N2C)cc1,inactive: -12.3%,
Cc1cc(C)n(-c2nnc(Nc3ccc(C(C)C)cc3)c3ccccc23)n1,inactive: 1.66%,
NCCNC(=O)c1ccc(Cl)cn1,inactive: -11.1%,
Fc1ccc(Nc2c3c(nc4nncn24)CCC3)cc1,inactive: -8.45%,
COc1cc(Nc2nc(SCc3cccc(Cl)c3)nc3ccccc23)cc(OC)c1,inactive: 0.252%,
Cc1nc2c(c(C)nn2-c2ccccc2)c(C)c1CCC(=O)Nc1ccc(F)cc1,inactive: -7.32%,
Cc1ccc2nc(-c3ccc(NC(=O)C(F)(F)F)cc3)sc2c1,,active: 14.1 µM
Cc1ccc(NC(=O)Cn2cc(S(=O)(=O)Cc3ccc(F)cc3)c3ccccc32)cc1Cl,inactive: -8.36%,
COc1ccc(-c2cc(C(F)(F)F)nc(SCC(=O)NCCc3ccccc3)n2)cc1,inactive: 20.6%,

SMILES,activation,Potency
CCOc1ccccc1C(=O)N(Cc1sccc1C)C1CCS(=O)(=O)C1 (centres undefined),inactive: -7.95%,
O=C(Nc1ccccc1)c1nc[nH]c1C(=O)O,inactive: -23.5%,
Cc1cc(C)c2c(CC(=O)N(Cc3ccc(Cl)cc3)Cc3ccco3)coc2c1,inactive: -8.2%,
CCOC(=O)CSc1nc2cc3c(cc2c(=O)n1Cc1ccc(C(=O)NCCc2ccc(OC)c(OC)c2)cc1)OCO3,inactive: -5.92%,
Cc1c(-c2ccccc2)nc2c(Cl)cccc2c1C(=O)OCC(=O)c1ccc(F)cc1,inactive: -12.6%,
COc1cc(OC)c(N(C)C(=O)c2c(C)oc3ncn(CC(C)C)c(=O)c23)cc1Cl,inactive: -12.5%,
CCCSc1ncc(Cl)c(C(=O)Nc2sc3c(c2C(=O)OC)CCCC3)n1,inactive: -2.57%,
O=C(CSCc1cnn(-c2ccccc2)c1-n1cccc1)NCc1cccc(Cl)c1,inactive: -14.1%,
N#Cc1c(-n2ncnc2-c2ccc(F)cc2)sc2c1CCCCC2,inactive: -4.38%,
Cc1ccc(-n2nc(C)c(C(=O)O)c2-n2cccc2)cc1,inactive: -18.1%,
Cc1ccc(CNC(=O)c2c(C)oc3ncnc(N4CCOCC4)c23)cc1,inactive: -39.2%,
CCOC(=O)c1c(C)[nH]c(C)c1S(=O)(=O)N(C)CC(=O)Nc1ccc(CC)cc1,inactive: -17.7%,
COc1ccc(/C=C\c2onc(C)c2S(=O)(=O)N2CCC(C(=O)Nc3cccc(OC)c3)CC2)cc1,inactive: 3.57%,
Cc1ccc(S(=O)(=O)Nc2ccc3nc(-c4ccc(F)cc4)oc3c2)cc1,inactive: -16.8%,
CC(C)(C)NC(=O)c1oc2ccccc2c1NC(=O)c1ccccc1F,inactive: -11.6%,
COc1cc(NC(=O)Cn2c(=O)ccc3cc(S(=O)(=O)N4CCCC4)ccc32)cc(OC)c1,inactive: -34.3%,
CC1=C(C(=O)N2CCN(c3ccccc3)CC2)C2(CCCCC2)OC1=O,inactive: -19.7%,
CCC(C)NC(=O)CCC(=O)N1Cc2ccccc2Oc2ncccc21 (centres undefined),inactive: -15.9%,
O=C(NCc1ccccc1)c1cc2ccc3cccnc3c2[nH]1,inactive: -6.96%,
CCc1ccc(-n2c(=O)c3c4c(sc3n(CC(=O)c3ccc(Br)cc3)c2=O)CCC4)cc1,inactive: 5.05%,
O=C(NCC1(c2ccccc2)CCCC1)C(=O)Nc1cccc(Br)c1,inactive: -7.45%,
Cc1ccccc1CCNC(=O)C1CCN(S(=O)(=O)c2ccc3c(ccn3C)c2)CC1,inactive: -10%,
Cc1cccc(C)c1NC(=O)Cn1nnc(C(=O)NCc2ccc(F)cc2)c1N,inactive: -5.41%,
CCc1nn(C(C)C(=O)N2CCN(c3ccccc3)CC2)c(=O)c2cc3occc3n12 (centres undefined),inactive: -11.1%,
Cc1oc2c(C)c3oc(=O)c(CC(=O)N4CCCCC4)c(C)c3cc2c1C,inactive: 3.11%,

SMILES,activation,Potency
CCCN(CCC)C(=O)C(Cc1ccccc1)NS(=O)(=O)c1ccc2c(c1)c(=O)n(C)c(=O)n2C (centres undefined),inactive: -7.73%,
Cc1cccc(N2CCN(C(=O)C3CCN(c4ncnc5c4nc4n5CCCCC4)CC3)CC2C)c1 (centres undefined),inactive: -16.8%,
Cn1nnnc1SCCCNCc1cccc(OCc2ccc(F)cc2)c1,inactive: -9.88%,
COc1cc(Nc2ncc3c(n2)CCN(Cc2cccc(C)c2)C3)cc(OC)c1,inactive: -21.8%,
Cn1c(=O)c2c(nc(Oc3ccccc3Cl)n2Cc2ccc(C#N)cc2)n(C)c1=O,inactive: -10.4%,
Cc1cc(C)c2c(CC(=O)Nc3ccccc3C(F)(F)F)coc2c1,inactive: -10.9%,
CCc1ccccc1NC(=O)Cn1nc(C(F)(F)F)c2c1CCC2,inactive: -14.4%,
Cc1nn2c(=O)cc(COC(=O)c3cccs3)nc2s1,inactive: -11.9%,
COc1ccc(S(=O)(=O)c2c(O)c3ccc(C(=O)Nc4ccccc4)cc3[nH]c2=O)cc1,inactive: -1.51%,
CCCSc1ncc(Cl)c(C(=O)Nc2nc3ccc(C)cc3s2)n1,inactive: -14.3%,
CSc1ccc(CCNC(=O)c2ccc3c(Cl)c4c(nc3c2)CCCC4)cc1,inactive: -14%,
CN(c1ccccc1C(=O)O)S(=O)(=O)c1ccc2[nH]c(=O)oc2c1,inactive: -11.6%,
CCOC(=O)c1ccccc1NC(=O)Cn1c(=O)n(Cc2nc(C)no2)c(=O)c2ccccc21,inactive: -19.8%,
O=C(CCn1c(=O)c2ccccc2n(Cc2cccc(Cl)c2)c1=O)NCCc1ccccc1,inactive: -8.03%,
CCOC(=O)N1CCC(Nc2ccc(Cl)cc2N)CC1,inactive: -14.7%,
CCS(=O)(=O)c1ncc(Cl)c(C(=O)NCc2ccc(OC)cc2)n1,inactive: -28.5%,
CCc1nn(CC(=O)Nc2cccc(C(C)=O)c2)c(=O)c2cc3sccc3n12,inactive: -24.2%,
O=C(NCc1ccccc1)C(=O)NCC(c1ccco1)S(=O)(=O)c1cccs1 (centres undefined),inactive: -20.2%,
Cc1ccc(Cl)cc1NC(=O)C1CCCN(c2cnccn2)C1 (centres undefined),inactive: -6.31%,
Cc1cccc(NC(=O)C2CCN(c3nnc(C)c4c(C)n(-c5ccccc5)nc34)CC2)c1C,inactive: -21.9%,
CN(C)c1ccc(C(CNS(=O)(=O)c2ccc(Cl)cc2)N2CCOCC2)cc1 (centres undefined),inactive: -8.03%,
Cc1oc(-c2ccc(Cl)cc2)nc1CN1CCCC(C(=O)NCc2ccccc2)C1 (centres undefined),inactive: -3.02%,
Cc1ccc(-n2c(COCC(=O)O)nc3cccnc32)cc1,inactive: 1.24%,
Cc1ccc(Cl)cc1N1CCN(C(=O)c2cc3c(=O)oc4ccccc4c3s2)CC1,inactive: -3.08%,
